Test results: PubChem BioAssay AID652104 (National Center for Advancing Translational Sciences (NCATS), 2013)
Among all 410,000 compounds or so, about 7,200 (1.8%) were called active. The shares of active, inactive and inconclusive entries below differ from those in the screen. The call rests on the fitted dose curve; in most records, active means well fitted activation curve with a large enough effect; inconclusive means small, poorly fitted or top-dose-only effect, or another doubt; inactive means no such curve, though single readings can be large or run the other way. A potency beside an inconclusive call is a rough fit, not a confirmed value.

Assay: qHTS of TDP-43 Inhibitors; further: nearly all actives have a fitted effect of over 50% in size; on growth rescue (activation): % of control where 0% means no effect
Settings: TDP-43 expressing yeast growth rescue, BacTiter-Glo, 24 h; growth rescue (activation): at 46.1 µM (top of the series) unless noted
In short: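 Luminescence from BacTiter-Glo reports growth of TDP-43-expressing yeast after 24 hr at 30 deg C with compound. Cells were raffinose-pregrown to mid-log, then seeded in galactose medium at OD600=0.02.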
Potency means the concentration at half of the fitted maximal effect; tags describe the fitted curve by direction and shape.

Potency, active:
C=CCN(CC=C)C(=S)NC(=O)c1ccc(-c2ccccc2)cc1 12.6 µM
N/C(=N\OC(=O)c1cc([N+](=O)[O-])ccc1Cl)c1cccnc1 12.6 µM
N#Cc1cc(-c2ccccc2)[nH]c1-c1nccc2ccccc12 11.2 µM
Cc1ccccc1N1C(=O)CC(N2CCC(C(N)=O)CC2)C1=O (stereo not given) 15.8 µM
COc1ccc(-n2cc(C(=O)NCCc3ccc(C)cc3)c3ccccc3c2=O)cc1 17.8 µM
CCOC(=O)C1CCCN(C(=O)c2sc3nc(-c4ccc(OC)cc4)cn3c2C)C1 (stereo not given) 11.2 µM
COc1ccc(CNC(=O)c2ccc3c(c2)N=C(C)c2c(C)ccc(C)c2S3)cc1 12.6 µM

Potency, inconclusive:
O=C(C1CCCN(S(=O)(=O)c2cccc3nonc23)C1)N1CCN(c2ccccc2F)CC1 (stereo not given) 20 µM [activator, single point]
CC(C)Cc1ccc(/C=C/C(=O)NC2CC2)cc1 14.1 µM [activator, single point]
CCn1c2c(c3ccc(OC)cc31)CCCC2=O 22.4 µM [activator, single point]
Cc1c(C(=O)N2CCN(C(=O)c3ccccc3)CC2)oc2ccc(F)cc12 20 µM [activator, single point]
COc1ccc(Cn2nnnc2CN2CCc3ccccc3C2)cc1 35.5 µM [activator, single point]
Cc1ccccc1OCC(=O)Nc1cccc(NC(=O)c2ccco2)c1 10 µM [activator, partial curve]
CCCCN1C(=O)C(NC(=O)c2ccc(C(C)(C)C)cc2)(C(F)(F)F)C(C(=O)OC)=C1C (stereo not given) 35.5 µM [activator, partial curve, poor fit]
Cc1cccc(COCC(Cc2ccccc2)N2CCN(C(=O)c3cccc(C)c3)CCC2=O)c1 (stereo not given) 11.2 µM [activator, partial curve]
CCOc1ccc(S(=O)(=O)NCCSc2ccccc2)cc1 11.2 µM [activator, partial curve]
CC(C)N(C)c1ncnc2c1ncn2[C@H]1CN(Cc2ccco2)C[C@@H](CO)O1 0.501 µM [activator, full curve, poor fit]
CCOC(=O)C1=CCN(S(=O)(=O)c2cccc(Cl)c2)C1c1ccc(C)cc1 (stereo not given) 20 µM [activator, partial curve, poor fit]
COCCOC(=O)c1c(C)oc2ccc(NS(=O)(=O)c3ccc(C)cc3)cc12 35.5 µM [activator, single point]
O=C(O)CSc1cc(NS(=O)(=O)c2cccc([N+](=O)[O-])c2)c2ccccc2c1O 17.8 µM [activator, single point]
Cc1ccccc1N1CCN(C(=O)c2cc(C3CC3)nn2-c2ccccc2)CC1 17.8 µM [activator, single point]
COC(=O)c1ccc(C2CC(=O)Nc3c2c(C)nn3-c2nc(C)cc(C)n2)cc1 (stereo not given) 6.31 µM [activator, partial curve]
Cc1cccc(Nc2ncnc3c2cnn3C)c1 3.55 µM [activator, partial curve]
COc1ccc2cc(C#N)c(N3CCN(C(=O)c4ccccc4C)CC3)nc2c1 22.4 µM [activator, single point]
COc1cc(O)c(CCC(=O)c2ccc(OC)c(OC)c2)c(OC)c1 35.5 µM [activator, single point]
COc1ccc(N2C(=O)N3[C@@H]4c5ccccc5OC[C@@H]4[C@@H](c4ccccc4)[C@@]3(C)C2=O)cc1 31.6 µM [activator, single point]
COc1ccc2nc(NC(=O)C3=NN(c4ccccc4)C(=O)CC3)sc2c1 31.6 µM [activator, single point]
S=C(NCCc1ccccc1)N1CCCCC1 11.2 µM [activator, partial curve]
COC(=O)C(C)Oc1ccc(-c2nccc(-c3ccc(F)cc3)n2)cc1 (stereo not given) 20 µM [activator, single point]
Cc1cc(C(=O)NN=C2CC(=O)CC(C)(C)C2)c(C)o1 4.47 µM [activator, partial curve]
O=C(NCC1CC1)C1(S(=O)(=O)c2ccccc2)CC=CC1 3.98 µM [activator, partial curve]
O=C(CCC1CCCCC1)NCc1cccs1 10 µM [activator, partial curve]
CCCCn1c(-c2csc3ccccc23)n[nH]c1=S 10 µM [activator, single point]
CC(=O)c1cccc(-c2cnc3c(NC=O)cc(-c4ccccc4F)cn23)c1 22.4 µM [activator, partial curve]
CCOC(=O)c1c(S(=O)(=O)N2CCC(C(=O)Nc3ccc(C)cn3)CC2)c(C)n(C)c1C 0.891 µM [activator, full curve]
O=[N+]([O-])c1cccnc1N1CCN(c2ccc(F)cc2)CC1 35.5 µM [activator, single point]
CSc1ncccc1C(=O)OCC(=O)c1cc(C)n(C)c1C 20 µM [activator, partial curve]
CCCC[C@@H]1CCCO[C@@](C(=O)NCc2ccccn2)(C(F)(F)F)C1 6.31 µM [activator, partial curve]
O=C(c1ccc(Br)o1)N(Cc1ccccc1)Cc1ccccc1 11.2 µM [activator, partial curve, poor fit]
CC(=O)c1ccc(Oc2nc(-c3cccnc3)nc3ccccc23)cc1 3.16 µM [activator, partial curve]
COc1ccc(N2CCN(C(=O)C(C)(C)Oc3ccc(Cl)cc3)CC2)cc1 7.94 µM [activator, partial curve]
O=C(Nc1ccc2c(c1)OCCO2)C1CCCN(c2ncccn2)C1 (stereo not given) 12.6 µM [activator, single point]
COc1cc(-c2ccno2)ccc1S(=O)(=O)N1CCN(c2cccc(Cl)c2)CC1 11.2 µM [activator, partial curve]
O=C(COc1ccccc1[N+](=O)[O-])Nc1ccc2c(c1)OCO2 7.08 µM [activator, partial curve]
COc1ccccc1C1CCN(C(=S)Nc2ccc(Br)cc2)CC1 15.8 µM [activator, single point]
C#CCOCCOCCOCCNc1nc(N2CCN(C(=O)Cn3cc(CC(C)O)nn3)CC2)nc(N2CCN(C(=O)[C@H](CCCCN)n3cc(CCCC)nn3)CC2)n1 (stereo not given in full) 7.08 µM [activator, partial curve, poor fit]
Cc1cc(C)c(C)c(S(=O)(=O)NCC(=O)Nc2ccccc2F)c1C 17.8 µM [activator, partial curve, poor fit]
O=C(CSc1ccc(-c2ccco2)nn1)c1ccc(F)cc1 11.2 µM [activator, single point]
COc1ccc(NC(=O)C2=C(C)Nc3nc(SCc4ccc(C)cc4C)nn3C2c2cccc(OC)c2OC)cc1 (stereo not given) 1.58 µM [activator, full curve]
Cc1ccc(OCC(=O)NNC(=S)NC(=O)c2ccc(Br)o2)c(C)c1 5.62 µM [activator, partial curve]
O=C1C2C(c3ccccc3)CC=CC2[C@H](c2ccoc2)N1Cc1ccccc1 (stereo not given in full) 11.2 µM [activator, partial curve]
Cc1cc(Br)ccc1NC(=O)CSCc1c(C)noc1C 11.2 µM [activator, partial curve]
Cc1ccc(NC(=O)COc2cccc3ccc(C)nc23)c(Br)c1 11.2 µM [activator, single point]
CC(C)NS(=O)(=O)c1ccc(CCC(=O)N2CCOCC2)cc1 0.891 µM [activator, partial curve, poor fit]
O/N=C/C1=C(Cl)c2ccccc2CC1 35.5 µM [activator, single point]

Growth rescue (activation), inconclusive:
Cc1nc2ccc(NC(=O)c3cc([N+](=O)[O-])cc([N+](=O)[O-])c3Cl)cc2s1 -92.4% [activator]

Growth rescue (activation), inactive:
CCCCCN1C(C(=O)c2ccccc2)=C(NC(=O)c2ccc(OC)c(OC)c2)c2ccccc2S1(=O)=O 23.9%
Cc1noc(C)c1S(=O)(=O)N(C)C[C@H]1OCc2cnnn2CCCC(=O)N([C@@H](C)CO)C[C@H]1C 21%
CCn1c(=O)c2sccc2n2c(CCCC(=O)Nc3ccc(C)cc3)nnc12 23.9%
O=C(CN1CCN(S(=O)(=O)c2ccccc2F)CC1)N1CCc2ccccc2C1 -7.9%
CCOc1ccc(OCC)c(Nc2nc3ccccc3n3nnnc23)c1 22.7%
CC1CCCCN1C(=O)CSc1nc2ccccc2nc1Cc1ccccc1 (stereo not given) 2.7%
Cc1oc2ncnc(N3CCCCC3)c2c1C(=O)NCC1CCN(Cc2ccccc2F)CC1 7.49%
COc1ccc(-c2c(-c3cc(OC)cc(OC)c3)sc3ccc(OC)cc23)cc1 16.2%
Clc1ccc(-c2cn3cccnc3n2)cc1 12.1%
